Here are results for two compounds from PubChem BioAssay (NCI).

Test systems include OVCAR-3 ovarian; NCI/ADR-RES ovarian; MALME-3M melanoma; HCT-15 colon; DU-145 prostate; RPMI-8226 leukemia; U251 CNS; HT29 colon; SK-OV-3 ovarian; HOP-92 NSCLC; SF-295 CNS; NCI-H460 lung; SF-539 CNS.
Holding throughout (test): inhibition of tumour cell growth, NCI panel, 48 h

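Five concentrations, 48 hours, 96-well plates. Here, GI50 denotes the concentration required for 50% inhibition of growth.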 A number of entries come with more than one value. The other results are left out here. There may be further records. For some assays here: Results that share an entry repeat one measurement (runs, samples, wells, individuals or studies). Marks in square brackets tell the records apart. Letters hold for one entry only.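 TGI is the concentration that stops growth completely.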 For some assays here: Records of one sample usually come from different ranges of test concentrations, not given here; a value can be the end of its range.

As to `Cc1c2ccccc2c(C)n2c1nc1cc(Cl)c(Cl)cc12`, the TGI in the test on OVCAR-3 ovarian is 307 nM and 98.6 µM; in the test with NCI/ADR-RES ovarian, 314 nM and > 100 µM; in the test on MALME-3M melanoma it was 315 nM and > 100 µM.

On to `COC(=O)Nc1nc2ccc(C(=O)c3cccs3)cc2[nH]1`, for which the TGI in the test on HCT-15 colon is 2.47 µM [sample A] and > 100 µM [sample B]; with RPMI-8226 leukemia, 5.85 µM [sample A] and > 100 µM [sample B]; in the test with OVCAR-3 ovarian, 3.37 µM [sample A, mean of 4 tests] and 296 nM [sample B, 1 test]; in the test with U251 CNS, 2.03 µM [sample A] and > 100 µM [sample B]; in the test with HT29 colon it was 895 nM [sample A] and > 100 µM [sample B]; in the test on SK-OV-3 ovarian it was 7.55 µM [sample A] and > 100 µM [sample B]. The TGI is 7.95 µM [sample A] and > 100 µM [sample B] with HOP-92 NSCLC; 34.3 nM [sample A] and > 100 µM [sample B] in the test with SF-295 CNS; 9.39 µM [sample A] and > 100 µM [sample B] in the test on NCI-H460 lung; 489 nM [sample A, mean of 3 tests] and > 100 µM [sample B, 1 test] with SF-539 CNS. The GI50 with DU-145 prostate is 24.3 nM [sample A, mean of 4 tests] and 312 nM [sample B, mean of 2 tests].
